# Some of the results follow.
# B1: Surfactant Protein D (Human); Neck + Carbohydrate Recognition Domain (NCRD) (Homo sapiens) (protein)
# chain: MLLFLLSALVLLTQPLGYLEAEMKTYSHRTMPSACTLVMCSSVESGLPGRDRDGREGPRGEKGDPGLPGAAGQAGMPGQAGPVGPKGDNGSVGEPGPKGDTGPSGPPGPPGVPGPAGREGALGKQGNIGPQGKPGPKGEAGPKGEVGAPGMQGSAGARGLAGPKGERGVPGERGVPGNTGAAGSAGAMGPQGSPGARGPPGLKGDKGIPGDKGAKGESGLPDVASLRQQVEALQGQVQHLQAAFSQYKKVELFPNGQSVGEKIFKTAQFVKPFTEAQLLCTQAGGQLASPRSAAENAALQQLVVAKNEAAFLSMTDSKTEGKFTYPTGESLVYSNWAPGEPNDNGGSEDCVEIFTNGKWNDRACGEKRLVVCEF
# Assays:
# Assay in all cases: glycan array binding signal (z-score within array); higher = stronger binding
# Settings in all cases: glycan notation: IUPAC condensed, linker removed; mutation: D325N
# Gal6S(b1-4)Glc = biological target: Gal6S(b1-4)Glc
# Method in brief: (§1)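 Columns mapping to the same glycan were averaged after glycan names were converted to IUPAC-condensed notation. The data come from 3228 arrays in the Consortium for Functional Glycomics database, limited to those with an available protein sequence. Binding is reported as a within-array Z-score averaged across arrays of one protein sequence and across linkers.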
# Gal6S(b1-4)Glc6S = biological target: Gal6S(b1-4)Glc6S
# Method in brief: as §1
# Gal6S(b1-4)GlcNAc = biological target: Gal6S(b1-4)GlcNAc
# Method in brief: as §1
# Gal6S(b1-4)GlcNAc6S = biological target: Gal6S(b1-4)GlcNAc6S
# Method in brief: as §1
# GalNAc(a1-3)Gal = biological target: GalNAc(a1-3)Gal
# Method in brief: as §1
# GalNAc(a1-3)GalNAc = biological target: GalNAc(a1-3)GalNAc
# Method in brief: as §1
# GalNAc(b1-3)Gal = biological target: GalNAc(b1-3)Gal
# Method in brief: as §1
# [1] = biological target: GalNAc(b1-3)Gal(a1-4)Gal(b1-4)GlcNAc
# Method in brief: as §1
# GalNAc(b1-3)GalNAc = biological target: GalNAc(b1-3)GalNAc
# Method in brief: as §1
# GalNAc(b1-4)GlcNAc = biological target: GalNAc(b1-4)GlcNAc
# Method in brief: as §1
# Glc(a1-4)Glc = biological target: Glc(a1-4)Glc
# Method in brief: as §1
# Glc(a1-6)Glc(a1-6)Glc = biological target: Glc(a1-6)Glc(a1-6)Glc
# Method in brief: as §1
# Glc(b1-4)Glc = biological target: Glc(b1-4)Glc
# Method in brief: as §1
# Glc(b1-6)Glc = biological target: Glc(b1-6)Glc
# Method in brief: as §1
# GlcA(b1-3)Gal = biological target: GlcA(b1-3)Gal
# Method in brief: as §1
# GlcA(b1-3)GlcNAc = biological target: GlcA(b1-3)GlcNAc
# Method in brief: as §1
# GlcA(b1-6)Gal = biological target: GlcA(b1-6)Gal
# Method in brief: as §1
# [2] = biological target: GlcNAc(a1-3)Gal(b1-4)GlcNAc
# Method in brief: as §1
# [3] = biological target: GlcNAc(a1-6)Gal(b1-4)GlcNAc
# Method in brief: as §1
# [4] = biological target: GlcNAc(b1-2)Gal(b1-3)GalNAc
# Method in brief: as §1
# [5] = biological target: GlcNAc(b1-2)Man(a1-3)[GlcNAc(b1-2)Man(a1-6)]Man(b1-4)GlcNAc(b1-4)GlcNAc
# Method in brief: as §1
# GlcNAc(b1-3)Gal = biological target: GlcNAc(b1-3)Gal
# Method in brief: as §1
# [6] = biological target: GlcNAc(b1-3)Gal(b1-3)GalNAc
# Method in brief: as §1
# GlcNAc(b1-3)Gal(b1-4)Glc = biological target: GlcNAc(b1-3)Gal(b1-4)Glc
# Method in brief: as §1
# [7] = biological target: GlcNAc(b1-3)Gal(b1-4)GlcNAc
# Method in brief: as §1
# [8] = biological target: GlcNAc(b1-3)Gal(b1-4)GlcNAc(b1-3)Gal(b1-4)GlcNAc
# Method in brief: as §1
# GlcNAc(b1-3)GalNAc = biological target: GlcNAc(b1-3)GalNAc
# Method in brief: as §1
# GlcNAc(b1-3)Man = biological target: GlcNAc(b1-3)Man
# Method in brief: as §1
# [9] = biological target: GlcNAc(b1-3)[GlcNAc(b1-4)][GlcNAc(b1-6)]GlcNAc
# Method in brief: as §1
# [10] = biological target: GlcNAc(b1-3)[GlcNAc(b1-6)]Gal(b1-4)GlcNAc
# Method in brief: as §1
# [11] = biological target: GlcNAc(b1-3)[GlcNAc(b1-6)]GalNAc
# Method in brief: as §1
# [12] = biological target: GlcNAc(b1-4)Gal(b1-4)GlcNAc
# Method in brief: as §1
# GlcNAc(b1-4)GlcNAc = biological target: GlcNAc(b1-4)GlcNAc
# Method in brief: as §1
# [13] = biological target: GlcNAc(b1-4)GlcNAc(b1-4)GlcNAc
# Method in brief: as §1
# [14] = biological target: GlcNAc(b1-4)GlcNAc(b1-4)GlcNAc(b1-4)GlcNAc(b1-4)GlcNAc
# Method in brief: as §1
# [15] = biological target: GlcNAc(b1-4)GlcNAc(b1-4)GlcNAc(b1-4)GlcNAc(b1-4)GlcNAc(b1-4)GlcNAc
# Method in brief: as §1
# [16] = biological target: GlcNAc(b1-4)[GlcNAc(b1-6)]GalNAc
# Method in brief: as §1
# [17] = biological target: GlcNAc(b1-6)Gal(b1-4)GlcNAc
# Method in brief: as §1
binder,measurement,setting,value
B1,glycan array binding signal (z-score),Gal6S(b1-4)Glc,-0.105
same,glycan array binding signal (z-score),Gal6S(b1-4)Glc6S,-0.121
same,glycan array binding signal (z-score),Gal6S(b1-4)GlcNAc,-0.148
same,glycan array binding signal (z-score),Gal6S(b1-4)GlcNAc6S,-0.146
same,glycan array binding signal (z-score),GalNAc(a1-3)Gal,-0.057
same,glycan array binding signal (z-score),GalNAc(a1-3)GalNAc,-0.149
same,glycan array binding signal (z-score),GalNAc(b1-3)Gal,-0.13
same,glycan array binding signal (z-score),[1],-0.113
same,glycan array binding signal (z-score),GalNAc(b1-3)GalNAc,-0.145
same,glycan array binding signal (z-score),GalNAc(b1-4)GlcNAc,-0.143
same,glycan array binding signal (z-score),Glc(a1-4)Glc,-0.157
same,glycan array binding signal (z-score),Glc(a1-6)Glc(a1-6)Glc,-0.155
same,glycan array binding signal (z-score),Glc(b1-4)Glc,-0.151
same,glycan array binding signal (z-score),Glc(b1-6)Glc,-0.145
same,glycan array binding signal (z-score),GlcA(b1-3)Gal,-0.146
same,glycan array binding signal (z-score),GlcA(b1-3)GlcNAc,-0.132
same,glycan array binding signal (z-score),GlcA(b1-6)Gal,-0.131
same,glycan array binding signal (z-score),[2],-0.139
same,glycan array binding signal (z-score),[3],-0.143
same,glycan array binding signal (z-score),[4],-0.121
same,glycan array binding signal (z-score),[5],0.879
same,glycan array binding signal (z-score),GlcNAc(b1-3)Gal,-0.146
same,glycan array binding signal (z-score),[6],-0.145
same,glycan array binding signal (z-score),GlcNAc(b1-3)Gal(b1-4)Glc,-0.118
same,glycan array binding signal (z-score),[7],-0.139
same,glycan array binding signal (z-score),[8],-0.138
same,glycan array binding signal (z-score),GlcNAc(b1-3)GalNAc,-0.15
same,glycan array binding signal (z-score),GlcNAc(b1-3)Man,-0.144
same,glycan array binding signal (z-score),[9],-0.153
same,glycan array binding signal (z-score),[10],-0.148
same,glycan array binding signal (z-score),[11],-0.107
same,glycan array binding signal (z-score),[12],-0.101
same,glycan array binding signal (z-score),GlcNAc(b1-4)GlcNAc,-0.143
same,glycan array binding signal (z-score),[13],-0.134
same,glycan array binding signal (z-score),[14],-0.126
same,glycan array binding signal (z-score),[15],-0.109
same,glycan array binding signal (z-score),[16],-0.131
same,glycan array binding signal (z-score),[17],-0.138
